# In all, about 390,000 compounds went through this assay and about 150 (0.038%) were called active. The shares of active, inactive and inconclusive entries below differ from those in the screen. Calls come from the whole dose curve; as a rule, active = well fitted inhibition curve with a large enough effect; inconclusive = small, poorly fitted or top-dose-only effect; inactive = no such curve, though single readings can be large or run the other way. Potencies of inconclusive entries are doubtful fits and often do not repeat.
# Biological target: Regulator of G-protein signaling 4 (Homo sapiens) (UniProt P49798)
# Test: Inhibitors of Regulator of G Protein Signaling (RGS) 4: qHTS; note: nearly all actives have a fitted effect of over 75% in size
# Settings: Transcreener GDP fluorescence polarization, RGS4-accelerated GTP hydrolysis; series mostly up to 114 µM
# Procedure, shortened: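 MLSMR compounds (23 nl, pin-transferred) preincubated 10 min at room temperature with a 500nM (2x) first reagent, then RGS4 at 900nM (2x) plus Transcreener GDP mix added; fluorescence polarization (620/688 nm) read before and after 90 min at 30 °C.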
# % is set by controls: 0 for no effect and ±100 for the full control effect; potency is the fitted concentration of half-maximal effect; tags give direction and shape of the fitted curve.
# Chain of UniProt P49798 (P49798 whole entry, looked up): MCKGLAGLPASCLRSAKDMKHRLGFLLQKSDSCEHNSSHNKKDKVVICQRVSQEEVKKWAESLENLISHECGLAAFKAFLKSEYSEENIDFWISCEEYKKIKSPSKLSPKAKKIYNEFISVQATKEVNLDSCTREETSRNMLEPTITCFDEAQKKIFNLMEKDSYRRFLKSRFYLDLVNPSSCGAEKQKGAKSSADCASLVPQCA
SMILES,Potency,"activity change, negative = inhibition"
CCOc1ccccc1N(CC(=O)N/N=C(\C)c1cccc(Br)c1)S(C)(=O)=O,"inconclusive: 20 µM [inhibitor, full curve, poor fit]",–
CN1CCN(C(=O)c2ccc(C3SCC(=O)N3Cc3ccco3)cc2)CC1 (centres undefined),"inconclusive: 89.1 µM [inhibitor, single point]",–
N#CCc1c(C#N)c(N)nc(N2CCN(Cc3ccc4c(c3)OCO4)CC2)c1C#N,"inconclusive: 100 µM [inhibitor, partial curve, poor fit]",–
COc1cc(CC(=O)OCC(=O)Nc2sccc2C(N)=O)cc(OC)c1OC,inactive,–
C/C(CC(=O)Nc1ccc(Cl)c(Cl)c1)=N\NC(N)=S,"inconclusive: 79.4 µM [inhibitor, partial curve, poor fit]",–
CC1=Nn2c(nnc2-c2cc(-c3ccccc3)n[nH]2)SC1,"inconclusive: 79.4 µM [inhibitor, partial curve, poor fit]",–
CCOC(=O)c1ccc(-n2cc(C(=O)c3cccnc3)nn2)cc1,inactive,–
CC(=O)Nc1ccc(/C=C/c2nc(-c3ccccc3O)n(-c3ccccc3)n2)cc1,inactive,–
Cc1ccc(Cn2cc(CCC(=O)NC3CCC(C)CC3)c3ccccc32)cc1 (centres undefined),inactive,–
C=CC(=O)N1C/C(=C/c2ccc(F)cc2)C(=O)/C(=C\c2ccc(F)cc2)C1,"inconclusive: 100 µM [inhibitor, partial curve, poor fit]",–
CCCc1c(C(=O)OCC)[nH]c2c1C(=O)CCC2,"inconclusive: 89.1 µM [inhibitor, single point]",–
O=C(NC(Cc1ccccc1)C(=O)O)/C(=C/c1ccc([N+](=O)[O-])cc1)NC(=O)c1ccc(Br)o1 (centres undefined),"inconclusive: 50.1 µM [inhibitor, partial curve, poor fit]",–
O=C(O)c1cccc(S(=O)(=O)NNc2ccccc2C(F)(F)F)c1,"inconclusive: 22.4 µM [inhibitor, full curve, poor fit]",–
CCn1cnc2c1c(=O)n(Cc1cccc(Br)c1)c(=O)n2Cc1ccccc1,"inconclusive: 35.5 µM [inhibitor, full curve, poor fit]",–
CC1=NN(C(N)=S)C(=O)C1N=Nc1ccc(Cl)cc1 (centres undefined),"inconclusive: 79.4 µM [inhibitor, partial curve, poor fit]",–
O=C(O)[C@@H]1CCCN1S(=O)(=O)c1cccc(S(=O)(=O)N2CCC[C@H]2C(=O)O)c1,inactive,–
Cc1ccc(S(=O)(=O)N(C)C)cc1NC(=O)C1Cc2ccccc2CN1C(=O)c1ccco1 (centres undefined),"inconclusive: 89.1 µM [inhibitor, single point]",–
COc1cc(C2Nc3ccccc3NC3=C2C(=O)CC(C)(C)C3)cc(OC)c1OC(C)=O (centres undefined),inactive,–
O=c1cc(-c2ccc(Cl)c(Cl)c2)[nH][nH]1,"inconclusive: 89.1 µM [inhibitor, partial curve, poor fit]",–
CC(C)n1c(=S)[nH]c2cc(Cl)ccc21,"inconclusive: 17.8 µM [inhibitor, full curve, poor fit]",–

SMILES,Potency,"activity change, negative = inhibition"
COc1cc(C(=O)N/N=C/c2ccc(OC)c(CN3CCN(c4ccc(F)cc4)CC3)c2)ccc1O,inactive,–
CCOC(=O)C1(C)/C(=N/Nc2cccc(Cl)c2)C(=O)C(=O)N1c1ccccc1 (centres undefined),"inconclusive: 89.1 µM [inhibitor, partial curve, poor fit]",–
O=C(O)c1ccc(N/N=C/c2cc3cc4c(cc3nc2Cl)OCCO4)cc1,"inconclusive: 79.4 µM [inhibitor, partial curve, poor fit]",–
O=C(N/N=C/c1ccco1)c1cccc(N2Cc3ccccc3C2)c1,"inconclusive: 44.7 µM [inhibitor, partial curve, poor fit]",–
Cc1ccc(-c2ccc(=O)n(CC(=O)Nc3ccc(C)cc3Cl)n2)cc1,"inconclusive: 56.2 µM [inhibitor, partial curve, poor fit]",–
O=C1NN(c2ccc(Cl)cc2)C(=O)/C1=C\c1ccc(-c2cccc(C(=O)O)c2)o1,"inconclusive: 100 µM [inhibitor, partial curve, poor fit]",–
COc1ccc(CNC(=O)C[C@H]2C[C@H](C(=O)N3CCCCC3)[C@@]3(CCc4ccccc4)c4[nH]c5cc(-c6ccco6)ccc5c4CCN3C2=O)cc1OC,"inconclusive: 50.1 µM [inhibitor, partial curve, poor fit]",–
O=C1C=CC(=O)c2c(O)c(N3CCN(CCOCCO)CC3)c(Br)c(O)c21,"inconclusive: 39.8 µM [inhibitor, partial curve, poor fit]",–
COc1ccc(-c2nc(CS(=O)CC(=O)NCCCN3CCCC(C)C3)c(C)o2)cc1OC (centres undefined),"inconclusive: 89.1 µM [inhibitor, partial curve, poor fit]",–
CCOC(=O)C1(N(CC)CC)Sc2cc(C)ccc2NC1=O (centres undefined),–,inactive: -16.9% [at 11.4 µM]
COc1ccc(C(=O)CSc2ncn[nH]2)cc1OC,"inconclusive: 44.7 µM [inhibitor, partial curve, poor fit]",–
O=C(O)c1ccc2nc3c(nc2c1)-c1ccccc1C3=O,"inconclusive: 44.7 µM [inhibitor, partial curve, poor fit]",–
CCn1cc2nc(SCC(=O)Nc3ccc(OC)c(OC)c3)n(Cc3ccc(Cl)cc3)c(=O)c2n1,inactive,–
CCCCC(=O)NCc1nc2cccnc2n1Cc1ccc(OC)cc1,inactive,–
Cc1cc(N2CCC(C(=O)Nc3ccc(F)cc3)CC2)nc(-c2ccccc2)n1,inactive,–
N#C/C(=C\c1ccc(-c2cccc(Cl)c2)o1)C(=O)Nc1cccc2cccnc12,"inconclusive: 56.2 µM [inhibitor, partial curve, poor fit]",–
BrC(=C\c1ccccc1)/C=N/Nc1nc2ccccc2[nH]1,"inconclusive: 79.4 µM [inhibitor, partial curve, poor fit]",–
O=C(NCc1cccnc1)c1ccc(Cl)c(S(=O)(=O)N2CCCCCC2)c1,"inconclusive: 22.4 µM [inhibitor, full curve, poor fit]",–
c1ccc(CCn2nnnc2C(c2cccs2)N2CCN(Cc3ccc4c(c3)OCO4)CC2)cc1 (centres undefined),inactive,–

# — PubChem BioAssay AID504845 (National Center for Advancing Translational Sciences (NCATS), 2011)
